This note sets out measurements from PMC5206653, “PDLIM5 links kidney anion exchanger 1 (kAE1) to ILK and is required for membrane targeting of kAE1” (Scientific Reports, 2017).

By UniProt entry, the sequences of proteins in these tests, tags left out.
UniProt Q13418: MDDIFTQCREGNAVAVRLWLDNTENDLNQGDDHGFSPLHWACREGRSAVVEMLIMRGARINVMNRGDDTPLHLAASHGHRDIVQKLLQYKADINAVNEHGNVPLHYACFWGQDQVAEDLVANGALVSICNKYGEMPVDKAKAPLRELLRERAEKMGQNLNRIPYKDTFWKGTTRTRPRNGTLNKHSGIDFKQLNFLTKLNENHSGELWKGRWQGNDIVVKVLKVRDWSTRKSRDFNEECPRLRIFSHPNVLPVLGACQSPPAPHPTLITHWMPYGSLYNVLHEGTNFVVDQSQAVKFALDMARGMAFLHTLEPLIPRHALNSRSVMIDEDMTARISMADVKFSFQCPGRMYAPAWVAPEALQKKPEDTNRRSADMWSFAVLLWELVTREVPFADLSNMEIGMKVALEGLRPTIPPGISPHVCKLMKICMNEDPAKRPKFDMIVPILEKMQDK

No constants are given. Whether binding was seen depends on the method and setting. For part of these data: Binding seen in cells or lysates may run through a third protein. Some binding calls cover weakened binding; strength is not graded here. Tags and fused reporters may be left off the sequences shown.

For experiment [1], the target named is T1, tag-free PDZ domain of PDLIM5 (PDLIM5-PDZ), first 127 residues (human) (UniProt Q96HC4).
T1 sequence: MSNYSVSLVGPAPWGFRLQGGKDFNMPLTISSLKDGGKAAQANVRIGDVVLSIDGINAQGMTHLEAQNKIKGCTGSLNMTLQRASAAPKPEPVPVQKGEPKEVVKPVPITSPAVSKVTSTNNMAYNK
Description: condition: 50–65 pmoles GST-ILK overlaid; 30, 60 and 120 pmoles spotted; far-Western, overlay or dot blot; GST-AE1C, GST-PDLIM5, PDLIM5-PDZ or GST alone spotted (pmole amounts) on nitrocellulose, overlaid with GST-ILK (50–65 pmoles) in PBS with 2% skimmed milk and 0.1% Tween 20; detection with anti-ILK; both purified.

Experiment [2] has as its target T2, GST-tagged AE1 C-terminal domain, wild type (GST_AE1C-WT) (human).
T2 sequence: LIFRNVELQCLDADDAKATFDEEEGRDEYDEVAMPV
The description is as above.

The target in experiment [3] is T3, GST_PDLIM5 recombinant protein (GST-PDLIM5a) (human) (UniProt Q96HC4).
T3 sequence: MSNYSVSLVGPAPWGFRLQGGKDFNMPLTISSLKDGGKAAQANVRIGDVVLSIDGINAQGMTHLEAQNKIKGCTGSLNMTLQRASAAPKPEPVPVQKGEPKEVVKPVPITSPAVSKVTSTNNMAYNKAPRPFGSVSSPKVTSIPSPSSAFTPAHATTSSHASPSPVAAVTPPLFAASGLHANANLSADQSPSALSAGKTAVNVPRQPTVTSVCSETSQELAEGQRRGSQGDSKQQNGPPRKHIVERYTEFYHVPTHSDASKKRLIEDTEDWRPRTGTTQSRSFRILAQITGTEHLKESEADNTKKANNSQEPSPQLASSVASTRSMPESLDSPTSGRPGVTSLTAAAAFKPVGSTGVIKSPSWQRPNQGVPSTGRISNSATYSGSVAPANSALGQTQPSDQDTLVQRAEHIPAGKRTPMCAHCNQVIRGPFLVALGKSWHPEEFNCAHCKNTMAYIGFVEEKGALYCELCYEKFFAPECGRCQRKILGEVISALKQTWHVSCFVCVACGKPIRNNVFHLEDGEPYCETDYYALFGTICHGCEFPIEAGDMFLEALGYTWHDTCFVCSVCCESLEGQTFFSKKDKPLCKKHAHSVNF
Description: far-Western, overlay or dot blot; GST-AE1C, GST-PDLIM5, PDLIM5-PDZ or GST alone spotted (pmole amounts) on nitrocellulose, overlaid with GST-ILK (50–65 pmoles) in PBS with 2% skimmed milk and 0.1% Tween 20; detection with anti-ILK; both purified.

Experiment [4] addresses T2, GST-tagged AE1 C-terminal domain, wild type (GST_AE1C-WT) (human). The experiment is described as follows: ELISA; 100 μl of 30 μM GST_AE1C-WT, -Δ11, -M909T or GST alone immobilised on a 96-well plate; incubated with 100 μl of 2 μg/ml GST_PDLIM5, tag-free PDLIM5-PDZ or GST_ILK; detection with anti-PDLIM5-nt or anti-ILK, HRP, ABTS; both purified.
Experiment [5] deals with GST-tagged AE1 C-terminal domain with the missense mutation M909T (GST_AE1C-M909T) (human) (UniProt P02730). The description is as above.
The target in experiment [6] is T2, GST-tagged AE1 C-terminal domain, wild type (GST_AE1C-WT) (human). The description is as above. This is another data set of the same source.
The target of experiment [7] is T4, GST-tagged AE1 C-terminal domain lacking the last 11 residues (GST_AE1C-Δ11) (human).
T4 sequence: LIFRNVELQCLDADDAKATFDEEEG
The experiment is described as above.

For experiment [8], the target named is T2, GST-tagged AE1 C-terminal domain, wild type (GST_AE1C-WT) (human). Description: pull-down; bead-bound GST_AE1C-WT or GST alone against HEK-ΔpMEP-eGFP-kAE1 cell lysates (150 mM NaCl, 20 mM Tris-HCl pH 7.4, 10% glycerol, 1% NP-40); blots with anti-PDLIM5-ct or anti-ILK; only the target purified.
Experiment [9] shares this target. The experiment is described as follows: pull-down; bead-bound GST_AE1C-WT or GST alone against human kidney cytosol; blots with anti-PDLIM5-ct or anti-ILK; only the target purified.

For “GST_ILK recombinant protein (integrin-linked kinase) (from UniProt Q13418 1-452)”, the binding result in experiment [1] was “no binding”; in experiment [2], “no binding”; in experiment [3], “binds”; in [4], “no binding (tested: 2 μg/ml)”.

B1: GST_PDLIM5 recombinant protein (GST-PDLIM5a) (protein, UniProt Q96HC4-1 1-596)
chain: T3 sequence
Regarding B1, the binding result is “binds” in experiment [5], “binds” in [6] and “no binding (tested: 2 μg/ml)” in experiment [7].

B2: PDLIM5a, endogenous (protein, UniProt Q96HC4-1 1-596)
chain: T3 sequence
Turning to B2, the binding entry in experiment [8] and in experiment [9] was “binds” in each case.

B3: PDLIM5b, endogenous (protein, UniProt Q96HC4-4 1-487)
chain: MSNYSVSLVGPAPWGFRLQGGKDFNMPLTISSLKDGGKAAQANVRIGDVVLSIDGINAQGMTHLEAQNKIKGCTGSLNMTLQRASAAPKPEPVPVQKPTVTSVCSETSQELAEGQRRGSQGDSKQQNGPPRKHIVERYTEFYHVPTHSDASKKRLIEDTEDWRPRTGTTQSRSFRILAQITGTEHLKESEADNTKKANNSQEPSPQLASSVASTRSMPESLDSPTSGRPGVTSLTAAAAFKPVGSTGVIKSPSWQRPNQGVPSTGRISNSATYSGSVAPANSALGQTQPSDQDTLVQRAEHIPAGKRTPMCAHCNQVIRGPFLVALGKSWHPEEFNCAHCKNTMAYIGFVEEKGALYCELCYEKFFAPECGRCQRKILGEVISALKQTWHVSCFVCVACGKPIRNNVFHLEDGEPYCETDYYALFGTICHGCEFPIEAGDMFLEALGYTWHDTCFVCSVCCESLEGQTFFSKKDKPLCKKHAHSVNF
Consider B3, for which the binding result in experiment [8] and in [9] was “binds” each time.

B4: tag-free PDZ domain of PDLIM5 (PDLIM5-PDZ), first 127 residues (domain or fragment, UniProt Q96HC4 1-127)
chain: T1 sequence
For B4, the binding entry in [7] is “no binding (tested: 2 μg/ml)”.
